Source: PubChem BioAssay AID1346428 (National Center for Advancing Translational Sciences (NCATS), 2018)
“And” between values parts separate entries of the source, which are not always exact repeats. Identical values can stand only once. Hit rate of the full screen: of about 48,000 compounds, about 1,200 (2.5%) were called active. Another 2% or so got no clear call; they are omitted.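 The calls were made as follows: active = activation of at least 60% and not above a set upper limit (about 1 call in 100 departs from these limits); inconclusive = activation of 40% to 60%, or above that upper limit; inactive = activation under 40%.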 The list shows a part of the results. The source holds several records for some structures; these can differ, active in one and inactive in another.

Each molecule was assayed against Probable G-protein coupled receptor 32 (Homo sapiens) (UniProt O75388) (assay: qHTS for Agonists of Human Resolvin D1 Receptor DRV1). Conditions: CHO-K1 GPR32 beta-arrestin PathHunter luminescence, 90 min; at 76.9 µM; stronger effect = higher value; zero percent set by DMSO-only wells.
Sequence of UniProt O75388 (O75388 whole entry, looked up, the tested form may be a part): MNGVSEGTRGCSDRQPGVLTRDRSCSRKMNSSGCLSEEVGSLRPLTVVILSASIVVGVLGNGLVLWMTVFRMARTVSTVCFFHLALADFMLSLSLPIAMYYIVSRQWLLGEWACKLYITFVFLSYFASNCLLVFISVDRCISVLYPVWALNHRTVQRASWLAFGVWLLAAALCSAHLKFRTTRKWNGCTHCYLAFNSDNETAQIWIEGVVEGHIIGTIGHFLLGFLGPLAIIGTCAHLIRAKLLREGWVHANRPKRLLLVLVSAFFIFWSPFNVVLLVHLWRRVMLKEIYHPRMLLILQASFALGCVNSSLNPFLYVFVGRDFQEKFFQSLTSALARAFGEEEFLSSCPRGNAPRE
Method in brief: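 GPR32 activation in stably transfected CHO-K1 cells, detected as beta-arrestin recruitment by enzyme-fragment complementation. Compound exposure: 90 min, 37 °C.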
Also: 0% is about no effect.

| SMILES | activation |
| --- | --- |
| COc1ccc(CCCc2nnc(SCC(=O)Nc3ccc(OC)cc3)o2)cc1 | inactive: -17.3% |
| O=C(CSc1nnc(NC(=O)Nc2ccccc2)s1)Nc1cccc(F)c1 | inactive: 32.6% |
| Cc1ccc2c(=O)c(C(=O)c3cccc(Cl)c3)cn(CC(=O)Nc3ccc4c(c3)OCCO4)c2n1 | inactive: -3.88% |
| Cn1cc(S(=O)(=O)c2cccc(Cl)c2)c(=O)c2cc(F)c(N3CCN(c4ccccc4)CC3)cc21 | inactive: -11% |
| O=C(Nc1cc(F)ccc1F)N1CCC(CN2CCCC2)CC1 | inactive: -16.7% |
| CN(C)[C@@H]1C(=O)C(C(N)=O)=C(O)[C@@]2(O)C(=O)C3=C(O)c4c(O)ccc(Cl)c4[C@@H](O)[C@H]3C[C@@H]12 | inactive: -17.1% and inactive: -45% |
| CN1C(=O)Cc2cc(S(=O)(=O)CCC(=O)Nc3ccc(F)c(Cl)c3)ccc21 | inactive: 0% |
| COc1ccc2c(c1)CCCC2=O | inactive: 14.1% |
| Cc1ccc(NC(=O)C(C)Sc2nc(=O)cc(N)n2-c2ccccc2)cc1 (centres undefined) | inactive: -3.38% |
| CCOC(=O)c1cccc(NC(=O)CCn2nc(C)c(S(=O)(=O)N3CCCCC3)c2C)c1 | inactive: -13.8% |
| CCCC(=O)Nc1ccc(-c2nc3ncccc3o2)cc1C | inactive: 17.1% |
| CCOc1ccc(NC(=O)CN2CCCN(Cc3cc(C)ccc3C)S2(=O)=O)cc1 | inactive: -7.51% |
| CCOC(=O)c1ccccc1NC(=O)N1CCC(CN2CCCCC2)CC1 | inactive: 4.8% |
| CCCc1nn2c(=O)cc(COC(=O)c3ccccc3NC(=O)c3ccc(Cl)cc3)nc2s1 | inactive: -18.1% |
| COc1cc(C2c3c(-c4cc(C)ccc4O)n[nH]c3C(=O)N2CCCO)ccc1OCCC(C)C (centres undefined) | active: 102% |
| CCc1ccccc1Nc1cc(C(=O)NC(C)c2ccccc2)c2ccccc2n1 (centres undefined) | inactive: -32.3% |
| CCOc1ccc(NC(=O)C2CCN(c3nnc(-n4c(C)ccc4C)s3)CC2)cc1 | inactive: -11.2% |
| COc1ccc(NC(=O)CSc2nc3ccccc3n2Cc2cccc(OC)c2)cc1 | inactive: -17.6% |
| COc1ccc2c(CNCCc3ccco3)c(C(=O)O)n(Cc3ccccc3)c2c1 | inactive: -7.04% |
| COCCNC(=O)c1cccc(-n2c(C)nc3cccnc32)c1 | inactive: 3.29% |
| Cc1nc(-c2cccnc2)sc1CCNS(=O)(=O)c1ccc(F)cc1 | inactive: 2.39% |

| SMILES | activation |
| --- | --- |
| Cc1cc(S(=O)(=O)Nc2ccc(-c3ccc(N4CCCCCC4)nn3)cc2)c(C)cc1Cl | inactive: 4.57% |
| CCc1sc(Nc2cccc(C)c2C)nc1-c1cc2cccc(OC)c2oc1=O | inactive: -14.8% |
| COc1ccc(-c2cc(C(F)(F)F)nc(SCC(=O)NCCc3ccccc3)n2)cc1OC | inactive: -3.87% |
| Cc1ccc(NC(=O)c2cc(S(=O)(=O)N3CCc4ccccc43)ccc2F)cc1Cl | inactive: -30.9% |
| COc1cc(OC)cc(-n2c(=O)c3sccc3n(Cc3c(C)cc(C)cc3C)c2=O)c1 | inactive: -3.58% |
| CCC(C)NC(=O)c1nn(-c2ccc(C)cc2)c(=O)n(C)c1=O (centres undefined) | inactive: -6.83% |
| COc1ccc(-c2cc(C(F)(F)F)n3nc(C(=O)Nc4ccccc4SC)cc3n2)cc1OC | inactive: -4.36% |
| Cc1ccc(OCC(=O)N(Cc2ccco2)Cc2ccc(C)o2)cc1 | inactive: -12% |
| COc1cc2c(=O)n(CCC(=O)NCC3CCCO3)c(=O)n(CC(=O)Nc3ccc(C)c(C)c3)c2cc1OC (centres undefined) | inactive: -12% |
| CC(C)c1cccc(OCCn2c(-c3ccc(Cl)cc3)nc3ccccc3c2=O)c1 | inactive: -12.5% |
| COc1cccc(CCNC(=O)c2c(O)nc3ccccn3c2=O)c1 | inactive: 21.6% |
| COCCCNC(=O)C1CCN(c2nn3cc(-c4ccc(F)cc4)nc3s2)CC1 | inactive: -6.2% |
| CCOc1ccccc1NC(=O)c1cnn2c(C(F)F)cc(-c3ccccc3)nc12 | inactive: -8.13% |
| Cc1ccccc1C(=O)OCc1cc(=O)n2nc(-c3cccs3)sc2n1 | inactive: -0.0436% |
| CC1=C(C(=O)Nc2ccccc2)C(c2cccs2)n2nc(SCc3ccccc3F)nc2N1 (centres undefined) | inactive: -2.87% |
| CN(C)CCN(Cc1ccco1)C(=O)c1oc2ccccc2c1NC(=O)c1ccccc1 | inactive: 33.1% |
| Cc1ccc(C)c(NC(=O)c2cc(S(=O)(=O)N3CCCCCC3)ccc2F)c1 | inactive: -14.6% |
| Cc1ccc(NC(=O)c2oc3ccc(S(=O)(=O)N4CCCCC4)cc3c2C)c(C)c1 | inactive: -7.44% |
| CCCCCCc1cc2cc(-c3nnc(-c4cccc(Cl)c4)o3)c(=O)oc2cc1O | inactive: -2.5% |
| Cc1cc(C)c(NC(=O)CN2C(=O)C3(SCC(=O)N3c3ccc(F)cc3)c3ccccc32)c(C)c1 (centres undefined) | inactive: -4.01% |
| Cc1cc(C)c(NC(=O)c2c(C)oc3c2C2=NCCN2C=N3)c(C)c1 | inactive: -21.9% |

| SMILES | activation |
| --- | --- |
| Cc1cccc(N2CCN(C(=O)C(C)n3nc(C)n4c(cc5occc54)c3=O)CC2)c1C (centres undefined) | inactive: -5.47% |
| O=c1c(O)c(-c2ccc(O)c(O)c2)oc2cc(O)cc(O)c12 | active: 109% and inactive: 10.2% |
| CCN(CC)S(=O)(=O)c1ccc(-c2csc(=Nc3cccc(C(F)(F)F)c3)n2Cc2ccc3c(c2)OCO3)cc1 | inactive: 16.4% |
| COc1ccc(C2c3c(n(C)c4ccccc34)C(=O)N2CC(=O)Nc2ccc(C)cc2Cl)cc1 (centres undefined) | inactive: -15.6% |
| CN(C)c1ccc(CNC(=O)C2CCN(S(=O)(=O)c3ccc4c(c3)oc(=O)n4C)CC2)cc1 | inactive: 11.7% |
| COc1cccc(NC(=O)Cn2c(=O)n(Cc3ccc(C(=O)NCc4ccc5c(c4)OCO5)cc3)c(=O)c3ccccc32)c1 | inactive: 6.05% |
| Cc1ccc(S(=O)(=O)N2CCCc3cc(NS(=O)(=O)c4ccc(F)cc4)ccc32)cc1 | inactive: -31.1% |
| CCc1ccc(-c2cc(C)no2)cc1S(=O)(=O)NCc1ccco1 | inactive: -13.1% |
| CCC(Oc1ccc(F)cc1)C(=O)Nc1nc2c(s1)CCCC2 (centres undefined) | inactive: -18.4% |
| COc1ccc(C(=O)N2c3nc(-c4ccco4)nn3C3(CCCCC3)[C@@H]3CCCC[C@@H]32)cc1OC | inactive: -25.9% |
| O=C(NC1CCCCC1)c1ccc(Cn2c(SCc3ccccc3)nc3cccnc32)cc1 | inactive: -4.66% |
| Cc1cccc(C(=O)N2CCCCC2CCN2CCCCC2)c1 (centres undefined) | inactive: -1.36% |
| O=C(Nc1ccc(F)cc1)c1oc2ccccc2c1NC(=O)C1CCCCC1 | inactive: -4.84% |
| CC(=O)Nc1cccc(O)c1 | inactive: 3.89% |
| Cc1ccccc1Cn1nnc2sc3c(c2c1=O)CCCC3 | inactive: -19.5% |
| CCOC(=O)c1c(NC(=O)Nc2ccc(F)cc2)sc(C(=O)N(C)C)c1C | inactive: -9.7% |
| CCOC(=O)c1cc2c(=O)n3ccccc3nc2n(CC2CCCO2)c1=NC(=O)c1cccc(C)c1 (centres undefined) | inactive: -2.21% |
| O=C(COc1ccccc1F)Nc1nnc(SCc2cc(=O)n3ccccc3n2)s1 | inactive: -4.33% |
| COc1ccc(CCNC(=O)c2ccc3c(c2)N(Cc2ccccc2Cl)C(=O)c2ccccc2S3)cc1OC | inactive: -18.5% |
| CCc1nc2ccc(C(=O)NCc3ccccc3C)cc2nc1CC | inactive: -23.8% |
| CN=C(N)NC(=O)Nc1c(C)cccc1C | inactive: 0.887% |

| SMILES | activation |
| --- | --- |
| COc1ccc(-n2cc(-c3ccccc3)c3c(N4CCCC(C)C4)ncnc32)cc1 (centres undefined) | inactive: -8.1% |
| O=c1c(NCc2cccs2)nccn1-c1ccccc1 | inactive: 7.27% |
| COc1ccc(-c2cccc(NS(=O)(=O)c3cc(C(F)(F)F)ccc3Cl)c2)nn1 | inactive: 41.4% |
| Cn1cc(CCCC(=O)NCc2cccc(Br)c2)c2ccccc21 | inactive: -33% |
| COc1ccc(C(=O)NCCc2csc(-c3ccc(Cl)cc3)n2)cc1 | active: 86.6% |
| O=C(CS(=O)(=O)c1cccc2nsnc12)NCc1ccccc1Cl | inactive: 1.51% |
| Cc1ccc(CN2c3ccccc3-c3nc(SCC(=O)NCc4ccccc4)ncc3S2(=O)=O)cc1 | inactive: -1.77% |
| CCC(=O)C1=C(c2ccccc2)N(C(=O)CC)n2c(nnc2-c2ccccc2)S1 | inactive: -12.7% |
| Cc1ccc(N(CC(=O)Nc2ccc(F)cc2F)S(=O)(=O)c2cccs2)cc1 | inactive: -1.06% |
| Cc1ccc(S(=O)(=O)NCCc2nnc3ccc(SCc4ccccc4F)nn23)cc1 | inactive: -24.4% |
| COCCn1c(SCC(=O)Nc2cccc(C)c2C)nc2c(oc3ccccc32)c1=O | inactive: -34.1% |
| COc1ccc(CCNC(=O)c2cc3c(-c4ccc(OC)c(OC)c4)nn(C)c3s2)cc1OC | inactive: 5.97% |
| Cc1cc(-c2ccc(S(=O)(=O)Nc3cc(Cl)ccc3C)s2)on1 | inactive: -5.22% |
| Cc1ccc(Cl)cc1N1CCN(C(=O)c2ccc(CS(=O)(=O)c3ccc(Br)cc3)o2)CC1 | inactive: 10.4% |
| Cc1oc2ncn(C)c(=O)c2c1C(=O)N(Cc1ccccc1)C(C)C | inactive: -8.22% |
| Cc1ccc(Cn2c(CO)cnc2SCc2cccc(F)c2)cc1 | inactive: 22.4% |
| Cc1ccc(Cl)cc1N1CCN(C(=O)CCn2c(=O)c3cccn3c3cccnc32)CC1 | inactive: -15.6% |
| CCOC(=O)c1c(C)[nH]c(CCC(=O)NCc2cccc(OC)c2)c1C | inactive: -4.41% |
| Cc1oc2ccc(O)c(CN3CCCCC3C)c2c1C(=O)Nc1ccccc1 (centres undefined) | inactive: 17.8% |
| O=C(CCc1ccccc1)N1CCc2c([nH]c3ccccc23)C1c1ccc(Cl)cc1 (centres undefined) | inactive: -39.6% |
| CCc1ccccc1NC(=O)CSc1nc2ncccc2o1 | inactive: -5.03% |
